Assay results taken from US5086042A, “Peptides with sulfate ester groups” (Fisons Corporation, priority 1989, dated 1992).
Part of at least one peptide drawing is inferred or uncertain, most often the ends. Residues, ends and D or L forms follow the SMILES beside them.

System: Male Sprague-Dawley rats
Format: in vivo
Details: rat, intraperitoneal; for % FEEDING INHIBITION 0.5 hr / % FEEDING INHIBITION 3 hr: 30 μg/kg, vs saline controls; for % FEEDING INHIBITION 0.5 hr: 0.5 hr feeding period; for % FEEDING INHIBITION 3 hr: IA means inactive
Description: The peptides of this invention have the ability to inhibit feeding activity in mammals. As a result they have utility in the prevention and treatment of obesity.
Male Sprague-Dawley rats (weighing 300-350 g) are individually caged and maintained on a 12 hr. light, dark cycle and trained for at least 14 days to feed during a three hr period of the dark cycle but not the 21 hours preceding that three hr period. The day of the study, rats are dosed intraperitoneally with saline (controls) or test compound (dissolved in saline; usually at a concentration of 0.3 to 300 micrograms of test compound per kg of rat weight). Food is introduced 10 minutes after administration of saline or test compound. […] The % feeding inhibition for the 1/2 hr and 3 hr feeding periods obtained by administering a dose of 30 μg/kg of test compound is given in Table 2 for CCK-8 and various compounds of the invention. For example, the % feeding inhibition obtained with CCK-8 (first line of Table 2) was 70% for the 1/2 hr feeding period and 25% for the 3-hour period.

Row | SMILES | % FEEDING INHIBITION 0.5 hr [%] | % FEEDING INHIBITION 3 hr (3 hr feeding period) [%] | % FEEDING INHIBITION 3 hr (values marked *) (300 μg/kg, 3 hr feeding period, <10% inhibition at 30 μg/kg) [%]
1 | CC[C@H](C)[C@H](NC(=O)[C@H](Cc1ccc(OS(=O)(=O)O)cc1)NC(=O)[C@H](N)CC(=O)O)C(=O)NCC(=O)N[C@@H](Cc1c[nH]c2ccccc12)C(=O)N[C@H](C(=O)N[C@@H](CC(=O)O)C(=O)N(C)[C@@H](Cc1ccccc1)C(N)=O)[C@@H](C)CC [H-DAsp-Tyr(SO3 H)-Ile-Gly-Trp-Ile-Asp-MePhe-NH2] (HELM PEPTIDE1{[dD].[O=C([C@H](Cc1ccc(OS(=O)(=O)O)cc1)N[*:1])[*:2]].I.G.W.I.D.[meF].[am]}$$$$V2.0) | 95 | 75 | –
2 | CSCC[C@H](NC(=O)[C@H](Cc1ccc(OS(=O)(=O)O)cc1)NC(=O)[C@H](N)CC(=O)O)C(=O)NCC(=O)N[C@@H](Cc1c[nH]c2ccccc12)C(=O)N[C@@H](CCSC)C(=O)N[C@@H](CC(=O)O)C(=O)N(C)[C@@H](Cc1ccccc1)C(N)=O [H-DAsp-Tyr(SO3 H)-Met-Gly-Trp-Met-Asp-MePhe-NH2] | 100 | 72 | –
3 | CSCC[C@H](NC(=O)[C@H](Cc1c[nH]c2ccccc12)NC(=O)CNC(=O)[C@H](CCSC)NC(=O)[C@@H](Cc1ccc(OS(=O)(=O)O)cc1)NC(=O)C[C@H](N)C(=O)O)C(=O)N[C@@H](CC(=O)O)C(=O)N[C@@H](Cc1ccccc1)C(N)=O [H-βAsp-DTyr(SO3 H)-Met-Gly-Trp-Met-Asp-Phe-NH2] | 47 | – | 33
4 | CSCC[C@H](NC(=O)[C@H](Cc1ccc(OS(=O)(=O)O)cc1)NC(=O)C[C@H](N)C(=O)O)C(=O)NCC(=O)N[C@@H](Cc1c[nH]c2ccccc12)C(=O)N[C@@H](CCSC)C(=O)N[C@@H](CC(=O)O)C(=O)N(C)[C@@H](Cc1ccccc1)C(N)=O [H-βAsp-Tyr(SO3 H)-Met-Gly-Trp-Met-Asp-MePhe-NH2] | 100 | 78 | –
5 | CC[C@H](C)[C@H](NC(=O)CCc1ccc(OS(=O)(=O)O)cc1)C(=O)NCC(=O)N[C@@H](Cc1c[nH]c2ccccc12)C(=O)N[C@H](C(=O)N[C@@H](CC(=O)O)C(=O)N(C)[C@@H](Cc1ccccc1)C(N)=O)[C@@H](C)CC [Hpp(SO3 H)-Ile-Gly-Trp-Ile-Asp-MePhe-NH2] (HELM PEPTIDE1{[O=C(CCc1ccc(OS(=O)(=O)O)cc1)[*:2]].I.G.W.I.D.[meF].[am]}$$$$V2.0) | 100 | 97 | –
6 | CSCC[C@H](NC(=O)CCc1ccc(OS(=O)(=O)O)cc1)C(=O)NCC(=O)N[C@@H](Cc1c[nH]c2ccccc12)C(=O)N[C@@H](CCSC)C(=O)N[C@@H](CC(=O)O)C(=O)N(C)[C@@H](Cc1ccccc1)C(N)=O [Hpp(SO3 H)-Met-Gly-Trp-Met-Asp-MePhe-NH2] (HELM PEPTIDE1{[O=C(CCc1ccc(OS(=O)(=O)O)cc1)[*:2]].M.G.W.M.D.[meF].[am]}$$$$V2.0) | 100 | 100 | –
7 | CSCC[C@H](NC(=O)CCc1ccc(OS(=O)(=O)O)cc1)C(=O)NCC(=O)N[C@@H](Cc1c[nH]c2ccccc12)C(=O)N[C@@H](CCSC)C(=O)N[C@@H](CC(=O)O)C(=O)N[C@@H](Cc1ccccc1)C(N)=O [Hpp(SO3 H)-Met-Gly-Trp-Met-Asp-Phe-NH2] (HELM PEPTIDE1{[O=C(CCc1ccc(OS(=O)(=O)O)cc1)[*:2]].M.G.W.M.D.F.[am]}$$$$V2.0) | 99 | 75 | –
8 | COC(=O)N[C@@H](Cc1ccc(OS(=O)(=O)O)cc1)C(=O)N[C@@H](CCSC)C(=O)NCC(=O)N[C@@H](Cc1c[nH]c2ccccc12)C(=O)N[C@@H](CCSC)C(=O)N[C@@H](CC(=O)O)C(=O)N[C@@H](Cc1ccccc1)C(N)=O [MeOCO-Tyr(SO3 H)-Met-Gly-Trp-Met-Asp-Phe-NH2] (HELM PEPTIDE1{[COC(=O)[*:2]].[O=C([C@H](Cc1ccc(OS(=O)(=O)O)cc1)N[*:1])[*:2]].M.G.W.M.D.F.[am]}$$$$V2.0) | 100 | 91 | –
9 | CCCOC(=O)N[C@@H](Cc1ccc(OS(=O)(=O)O)cc1)C(=O)N[C@@H](CCSC)C(=O)NCC(=O)N[C@@H](Cc1c[nH]c2ccccc12)C(=O)N[C@@H](CCSC)C(=O)N[C@@H](CC(=O)O)C(=O)N[C@@H](Cc1ccccc1)C(N)=O [PrOCO-Tyr(SO3 H)-Met-Gly-Trp-Met-Asp-Phe-NH2] (HELM PEPTIDE1{[CCCOC(=O)[*:2]].[O=C([C@H](Cc1ccc(OS(=O)(=O)O)cc1)N[*:1])[*:2]].M.G.W.M.D.F.[am]}$$$$V2.0) | 90 | 74 | –
10 | CSCC[C@H](NC(=O)[C@H](Cc1c[nH]c2ccccc12)NC(=O)CNC(=O)[C@H](CCSC)NC(=O)[C@@H](Cc1ccc(OS(=O)(=O)O)cc1)NC(=O)CCC(=O)O)C(=O)N[C@@H](CC(=O)O)C(=O)N[C@@H](Cc1ccccc1)C(N)=O [Suc-DTyr(SO3 H)-Met-Gly-Trp-Met-Asp-Phe-NH2] (HELM PEPTIDE1{[O=C(O)CCC(=O)[*:2]].[O=C([C@@H](Cc1ccc(OS(=O)(=O)O)cc1)N[*:1])[*:2]].M.G.W.M.D.F.[am]}$$$$V2.0) | 82 | 60 | –
11 | CC[C@H](C)[C@H](NC(=O)[C@H](Cc1ccc(OS(=O)(=O)O)cc1)NC(=O)CCC(=O)O)C(=O)NCC(=O)N[C@@H](Cc1c[nH]c2ccccc12)C(=O)N[C@H](C(=O)N[C@@H](CC(=O)O)C(=O)N(C)[C@@H](Cc1ccccc1)C(N)=O)[C@@H](C)CC [Suc-Tyr(SO3 H)-Ile-Gly-Trp-Ile-Asp-,MePhe-NH2] (HELM PEPTIDE1{[O=C(O)CCC(=O)[*:2]].[O=C([C@H](Cc1ccc(OS(=O)(=O)O)cc1)N[*:1])[*:2]].I.G.W.I.D.[meF].[am]}$$$$V2.0) | 100 | 100 | –
12 | CSCC[C@H](NC(=O)[C@H](Cc1ccc(OS(=O)(=O)O)cc1)NC(=O)CCC(=O)O)C(=O)NCC(=O)N[C@@H](Cc1c[nH]c2ccccc12)C(=O)N[C@@H](CCSC)C(=O)N[C@@H](CC(=O)O)C(=O)N(C)[C@@H](Cc1ccccc1)C(N)=O [Suc-Tyr(SO3 H)-Met-Gly-Trp-Met-Asp-MePhe-NH2] (HELM PEPTIDE1{[O=C(O)CCC(=O)[*:2]].[O=C([C@H](Cc1ccc(OS(=O)(=O)O)cc1)N[*:1])[*:2]].M.G.W.M.D.[meF].[am]}$$$$V2.0) | 100 | 95 | –
13 | CC[C@H](C)[C@H](NC(=O)[C@H](Cc1ccc(OS(=O)(=O)O)cc1)NC(=O)OCC(C)C)C(=O)NCC(=O)N[C@@H](Cc1c[nH]c2ccccc12)C(=O)N[C@H](C(=O)N[C@@H](CC(=O)O)C(=O)N[C@@H](Cc1ccccc1)C(N)=O)[C@@H](C)CC [iBuOCO-Tyr(SO3 H)-Ile-Gly-Trp-Ile-Asp-Phe-NH2] (HELM PEPTIDE1{[CC(C)COC(=O)[*:2]].[O=C([C@H](Cc1ccc(OS(=O)(=O)O)cc1)N[*:1])[*:2]].I.G.W.I.D.F.[am]}$$$$V2.0) | 62 | 58 | –
14 | CSCC[C@H](NC(=O)[C@H](Cc1ccc(OS(=O)(=O)O)cc1)NC(=O)OCC(C)C)C(=O)NCC(=O)N[C@@H](Cc1c[nH]c2ccccc12)C(=O)N[C@@H](CCSC)C(=O)N[C@@H](CC(=O)O)C(=O)N(C)[C@@H](Cc1ccccc1)C(N)=O [iBuOCO-Tyr(SO3 H)-Met-Gly-Trp-Met-Asp-MePhe-NH2] (HELM PEPTIDE1{[CC(C)COC(=O)[*:2]].[O=C([C@H](Cc1ccc(OS(=O)(=O)O)cc1)N[*:1])[*:2]].M.G.W.M.D.[meF].[am]}$$$$V2.0) | 100 | 99 | –
15 | CSCC[C@H](NC(=O)[C@H](Cc1ccc(OS(=O)(=O)O)cc1)NC(=O)OCC(C)C)C(=O)NCC(=O)N[C@@H](Cc1c[nH]c2ccccc12)C(=O)N[C@@H](CCSC)C(=O)N[C@@H](CC(=O)O)C(=O)N[C@@H](Cc1ccccc1)C(N)=O [iBuOCO-Tyr(SO3 H)-Met-Gly-Trp-Met-Asp-Phe-NH2] (HELM PEPTIDE1{[CC(C)COC(=O)[*:2]].[O=C([C@H](Cc1ccc(OS(=O)(=O)O)cc1)N[*:1])[*:2]].M.G.W.M.D.F.[am]}$$$$V2.0) | 100 | 94 | –
16 | CC[C@H](C)[C@H](NC(=O)[C@H](Cc1ccc(OS(=O)(=O)O)cc1)NC(=O)OCC(C)C)C(=O)NCC(=O)N[C@@H](Cc1c[nH]c2ccccc12)C(=O)N[C@H](C(=O)N[C@@H](CC(=O)O)C(=O)N(C)[C@@H](Cc1ccccc1)C(N)=O)[C@@H](C)CC [iBuOCO-Tyr(SO3 sH)-Ile-Gly-Trp-Ile-Asp-MePhe-NH2] (HELM PEPTIDE1{[CC(C)COC(=O)[*:2]].[O=C([C@H](Cc1ccc(OS(=O)(=O)O)cc1)N[*:1])[*:2]].I.G.W.I.D.[meF].[am]}$$$$V2.0) | 96 | 92 | –
